# Measured values as given in the supplement of paper PMC8728848.
# Some of the results follow.
# Assays:
# Test in all cases: glycan array binding signal (z-score within array); higher = stronger binding
# Settings in all cases: glycan notation: IUPAC condensed, linker removed
# [1] = molecular target: GlcNAc(a1-6)Gal(b1-4)GlcNAc
# Procedure, shortened: (§1)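 Glycan array binding is given as a within-array Z-score, which can be read as non-binding when negative. The arrays, 3228 of them, came from the Consortium for Functional Glycomics database and were retained only where the protein sequence was available. Z-scores were averaged across arrays of the same protein sequence at different concentrations or buffers and across linkers.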
# [2] = molecular target: GlcNAc(b1-2)Gal(b1-3)GalNAc
# Procedure, shortened: as §1
# [3] = molecular target: GlcNAc(b1-2)Man(a1-3)[GlcNAc(b1-2)Man(a1-6)]Man(b1-4)GlcNAc(b1-4)GlcNAc
# Procedure, shortened: as §1
# [4] = molecular target: GlcNAc(b1-2)Man(a1-3)[GlcNAc(b1-2)Man(a1-6)]Man(b1-4)GlcNAc(b1-4)[Fuc(a1-6)]GlcNAc
# Procedure, shortened: as §1
# [5] = molecular target: GlcNAc(b1-2)Man(a1-3)[GlcNAc(b1-4)][GlcNAc(b1-2)Man(a1-6)]Man(b1-4)GlcNAc(b1-4)GlcNAc
# Procedure, shortened: as §1
# [6] = molecular target: GlcNAc(b1-2)Man(a1-3)[GlcNAc(b1-4)][GlcNAc(b1-2)Man(a1-6)]Man(b1-4)GlcNAc(b1-4)[Fuc(a1-6)]GlcNAc
# Procedure, shortened: as §1
# [7] = molecular target: GlcNAc(b1-2)[GlcNAc(b1-4)]Man(a1-3)[GlcNAc(b1-2)Man(a1-6)]Man(b1-4)GlcNAc(b1-4)GlcNAc
# Procedure, shortened: as §1
# [8] = molecular target: GlcNAc(b1-2)[GlcNAc(b1-4)]Man(a1-3)[GlcNAc(b1-4)][GlcNAc(b1-2)Man(a1-6)]Man(b1-4)GlcNAc(b1-4)GlcNAc
# Procedure, shortened: as §1
# [9] = molecular target: GlcNAc(b1-2)[GlcNAc(b1-4)]Man(a1-3)[GlcNAc(b1-4)][GlcNAc(b1-2)[GlcNAc(b1-6)]Man(a1-6)]Man(b1-4)GlcNAc(b1-4)GlcNAc
# Procedure, shortened: as §1
# [10] = molecular target: GlcNAc(b1-2)[GlcNAc(b1-4)]Man(a1-3)[GlcNAc(b1-4)][GlcNAc(b1-2)[GlcNAc(b1-6)]Man(a1-6)]Man(b1-4)GlcNAc(b1-4)[Fuc(a1-6)]GlcNAc
# Procedure, shortened: as §1
# [11] = molecular target: GlcNAc(b1-2)[GlcNAc(b1-6)]Man(a1-6)[GlcNAc(b1-2)Man(a1-3)]Man(b1-4)GlcNAc(b1-4)GlcNAc
# Procedure, shortened: as §1
# [12] = molecular target: GlcNAc(b1-2)[GlcNAc(b1-6)]Man(a1-6)[GlcNAc(b1-2)Man(a1-3)]Man(b1-4)GlcNAc(b1-4)[Fuc(a1-6)]GlcNAc
# Procedure, shortened: as §1
# [13] = molecular target: GlcNAc(b1-2)[GlcNAc(b1-6)]Man(a1-6)[GlcNAc(b1-4)][GlcNAc(b1-2)Man(a1-3)]Man(b1-4)GlcNAc(b1-4)GlcNAc
# Procedure, shortened: as §1
# GlcNAc(b1-3)Fuc = molecular target: GlcNAc(b1-3)Fuc
# Procedure, shortened: as §1
# GlcNAc(b1-3)Gal = molecular target: GlcNAc(b1-3)Gal
# Procedure, shortened: as §1
# [14] = molecular target: GlcNAc(b1-3)Gal(b1-3)GalNAc
# Procedure, shortened: as §1
# GlcNAc(b1-3)Gal(b1-4)Glc = molecular target: GlcNAc(b1-3)Gal(b1-4)Glc
# Procedure, shortened: as §1
# [15] = molecular target: GlcNAc(b1-3)Gal(b1-4)GlcNAc
# Procedure, shortened: as §1
# [16] = molecular target: GlcNAc(b1-3)Gal(b1-4)GlcNAc(b1-2)Man(a1-3)[GlcNAc(b1-3)Gal(b1-4)GlcNAc(b1-2)Man(a1-6)]Man(b1-4)GlcNAc(b1-4)GlcNAc
# Procedure, shortened: as §1
# [17] = molecular target: GlcNAc(b1-3)Gal(b1-4)GlcNAc(b1-2)Man(a1-3)[GlcNAc(b1-3)Gal(b1-4)GlcNAc(b1-2)Man(a1-6)]Man(b1-4)GlcNAc(b1-4)[Fuc(a1-6)]GlcNAc
# Procedure, shortened: as §1
# [18] = molecular target: GlcNAc(b1-3)Gal(b1-4)GlcNAc(b1-2)[GlcNAc(b1-3)Gal(b1-4)GlcNAc(b1-6)]Man(a1-6)[GlcNAc(b1-3)Gal(b1-4)GlcNAc(b1-2)Man(a1-3)]Man(b1-4)GlcNAc(b1-4)GlcNAc
# Procedure, shortened: as §1
# [19] = molecular target: GlcNAc(b1-3)Gal(b1-4)GlcNAc(b1-3)Gal(b1-4)GlcNAc
# Procedure, shortened: as §1
# [20] = molecular target: GlcNAc(b1-3)Gal(b1-4)GlcNAc(b1-3)Gal(b1-4)GlcNAc(b1-2)Man(a1-3)[GlcNAc(b1-3)Gal(b1-4)GlcNAc(b1-3)Gal(b1-4)GlcNAc(b1-2)Man(a1-6)]Man(b1-4)GlcNAc(b1-4)GlcNAc
# Procedure, shortened: as §1
# [21] = molecular target: GlcNAc(b1-3)Gal(b1-4)GlcNAc(b1-3)Gal(b1-4)GlcNAc(b1-2)Man(a1-3)[GlcNAc(b1-3)Gal(b1-4)GlcNAc(b1-3)Gal(b1-4)GlcNAc(b1-2)Man(a1-6)]Man(b1-4)GlcNAc(b1-4)[Fuc(a1-6)]GlcNAc
# Procedure, shortened: as §1
# [22] = molecular target: GlcNAc(b1-3)Gal(b1-4)GlcNAc(b1-3)Gal(b1-4)GlcNAc(b1-2)[GlcNAc(b1-3)Gal(b1-4)GlcNAc(b1-3)Gal(b1-4)GlcNAc(b1-6)]Man(a1-6)[GlcNAc(b1-3)Gal(b1-4)GlcNAc(b1-3)Gal(b1-4)GlcNAc(b1-2)Man(a1-3)]Man(b1-4)GlcNAc(b1-4)[Fuc(a1-6)]GlcNAc
# Procedure, shortened: as §1
# [23] = molecular target: GlcNAc(b1-3)Gal(b1-4)GlcNAc(b1-3)Gal(b1-4)GlcNAc(b1-3)Gal(b1-4)GlcNAc(b1-2)Man(a1-3)[GlcNAc(b1-3)Gal(b1-4)GlcNAc(b1-3)Gal(b1-4)GlcNAc(b1-3)Gal(b1-4)GlcNAc(b1-2)Man(a1-6)]Man(b1-4)GlcNAc(b1-4)GlcNAc
# Procedure, shortened: as §1
# [24] = molecular target: GlcNAc(b1-3)Gal(b1-4)GlcNAc(b1-3)Gal(b1-4)GlcNAc(b1-3)Gal(b1-4)GlcNAc(b1-2)Man(a1-3)[GlcNAc(b1-3)Gal(b1-4)GlcNAc(b1-3)Gal(b1-4)GlcNAc(b1-3)Gal(b1-4)GlcNAc(b1-2)Man(a1-6)]Man(b1-4)GlcNAc(b1-4)[Fuc(a1-6)]GlcNAc
# Procedure, shortened: as §1
# [25] = molecular target: GlcNAc(b1-3)Gal(b1-4)GlcNAc(b1-3)Gal(b1-4)GlcNAc(b1-3)Gal(b1-4)GlcNAc(b1-2)[GlcNAc(b1-3)Gal(b1-4)GlcNAc(b1-3)Gal(b1-4)GlcNAc(b1-3)Gal(b1-4)GlcNAc(b1-6)]Man(a1-6)[GlcNAc(b1-3)Gal(b1-4)GlcNAc(b1-3)Gal(b1-4)GlcNAc(b1-3)Gal(b1-4)GlcNAc(b1-2)Man(a1-3)]Man(b1-4)GlcNAc(b1-4)[Fuc(a1-6)]GlcNAc
# Procedure, shortened: as §1
# [26] = molecular target: GlcNAc(b1-3)Gal(b1-4)GlcNAc(b1-3)Gal(b1-4)GlcNAc(b1-3)Gal(b1-4)GlcNAc(b1-3)Gal(b1-4)GlcNAc(b1-2)Man(a1-3)[GlcNAc(b1-3)Gal(b1-4)GlcNAc(b1-3)Gal(b1-4)GlcNAc(b1-3)Gal(b1-4)GlcNAc(b1-3)Gal(b1-4)GlcNAc(b1-2)Man(a1-6)]Man(b1-4)GlcNAc(b1-4)GlcNAc
# Procedure, shortened: as §1
# [27] = molecular target: GlcNAc(b1-3)Gal(b1-4)GlcNAc(b1-3)Gal(b1-4)GlcNAc(b1-3)Gal(b1-4)GlcNAc(b1-3)Gal(b1-4)GlcNAc(b1-2)Man(a1-3)[GlcNAc(b1-3)Gal(b1-4)GlcNAc(b1-3)Gal(b1-4)GlcNAc(b1-3)Gal(b1-4)GlcNAc(b1-3)Gal(b1-4)GlcNAc(b1-2)Man(a1-6)]Man(b1-4)GlcNAc(b1-4)[Fuc(a1-6)]GlcNAc
# Procedure, shortened: as §1
# [28] = molecular target: GlcNAc(b1-3)Gal(b1-4)GlcNAc(b1-3)Gal(b1-4)GlcNAc(b1-3)Gal(b1-4)GlcNAc(b1-3)Gal(b1-4)GlcNAc(b1-2)[GlcNAc(b1-3)Gal(b1-4)GlcNAc(b1-3)Gal(b1-4)GlcNAc(b1-3)Gal(b1-4)GlcNAc(b1-3)Gal(b1-4)GlcNAc(b1-6)]Man(a1-6)[GlcNAc(b1-3)Gal(b1-4)GlcNAc(b1-3)Gal(b1-4)GlcNAc(b1-3)Gal(b1-4)GlcNAc(b1-3)Gal(b1-4)GlcNAc(b1-2)Man(a1-3)]Man(b1-4)GlcNAc(b1-4)[Fuc(a1-6)]GlcNAc
# Procedure, shortened: as §1
# [29] = molecular target: GlcNAc(b1-3)Gal(b1-4)GlcNAc(b1-3)Gal(b1-4)GlcNAc(b1-3)GalNAc
# Procedure, shortened: as §1
# [30] = molecular target: GlcNAc(b1-3)Gal(b1-4)GlcNAc(b1-3)GalNAc
# Procedure, shortened: as §1
# [31] = molecular target: GlcNAc(b1-3)Gal(b1-4)GlcNAc(b1-3)[GlcNAc(b1-3)Gal(b1-4)GlcNAc(b1-3)]GalNAc
# Procedure, shortened: as §1
# [32] = molecular target: GlcNAc(b1-3)Gal(b1-4)GlcNAc(b1-6)[Gal(b1-3)]GalNAc
# Procedure, shortened: as §1
# [33] = molecular target: GlcNAc(b1-3)Gal(b1-4)GlcNAc(b1-6)[GlcNAc(b1-3)Gal(b1-3)]GalNAc
# Procedure, shortened: as §1
# [34] = molecular target: GlcNAc(b1-3)Gal(b1-4)GlcNAc(b1-6)[GlcNAc(b1-3)]Gal(b1-4)GlcNAc
# Procedure, shortened: as §1
# GlcNAc(b1-3)GalNAc = molecular target: GlcNAc(b1-3)GalNAc
# Procedure, shortened: as §1
# GlcNAc(b1-3)Man = molecular target: GlcNAc(b1-3)Man
# Procedure, shortened: as §1
# [35] = molecular target: GlcNAc(b1-3)[GlcNAc(b1-4)][GlcNAc(b1-6)]GlcNAc
# Procedure, shortened: as §1
# [36] = molecular target: GlcNAc(b1-3)[GlcNAc(b1-6)]Gal(b1-4)GlcNAc
# Procedure, shortened: as §1
# [37] = molecular target: GlcNAc(b1-3)[GlcNAc(b1-6)]GalNAc
# Procedure, shortened: as §1
# [38] = molecular target: GlcNAc(b1-4)Gal(b1-4)GlcNAc
# Procedure, shortened: as §1
# GlcNAc(b1-4)GlcNAc = molecular target: GlcNAc(b1-4)GlcNAc
# Procedure, shortened: as §1
# [39] = molecular target: GlcNAc(b1-4)GlcNAc(b1-4)GlcNAc
# Procedure, shortened: as §1
binder,measurement,setting,value
NKR-PIC (Mus musculus) (protein) GTGQKPSREKCCVFIQENLNKTTDCSVNLECPQDWLLHRDKCFHVSQVSNTWEEGQADCGRKGATLLLIQDQEELRFLLDSIKEKYNSFWIGLRFTLPDMNWKWINGTTFNSDVLKITGVTENGSCASILGDKVTPESCASDNRWICQKELNHETPSNDSGT,glycan array binding signal (z-score),[1],-0.328
same,glycan array binding signal (z-score),[2],-0.07
same,glycan array binding signal (z-score),[3],-0.317
same,glycan array binding signal (z-score),[4],-0.287
same,glycan array binding signal (z-score),[5],3.99
same,glycan array binding signal (z-score),[6],3.73
same,glycan array binding signal (z-score),[7],-0.353
same,glycan array binding signal (z-score),[8],1.63
same,glycan array binding signal (z-score),[9],0.235
same,glycan array binding signal (z-score),[10],-0.231
same,glycan array binding signal (z-score),[11],-0.319
same,glycan array binding signal (z-score),[12],-0.368
same,glycan array binding signal (z-score),[13],1.57
same,glycan array binding signal (z-score),GlcNAc(b1-3)Fuc,0.686
same,glycan array binding signal (z-score),GlcNAc(b1-3)Gal,-0.247
same,glycan array binding signal (z-score),[14],-0.329
same,glycan array binding signal (z-score),GlcNAc(b1-3)Gal(b1-4)Glc,-0.282
same,glycan array binding signal (z-score),[15],1.7
same,glycan array binding signal (z-score),[16],0.533
same,glycan array binding signal (z-score),[17],0.804
same,glycan array binding signal (z-score),[18],1.88
same,glycan array binding signal (z-score),[19],1.75
same,glycan array binding signal (z-score),[20],1.31
same,glycan array binding signal (z-score),[21],1.59
same,glycan array binding signal (z-score),[22],1.86
same,glycan array binding signal (z-score),[23],1.55
same,glycan array binding signal (z-score),[24],1.53
same,glycan array binding signal (z-score),[25],1.96
same,glycan array binding signal (z-score),[26],2.76
same,glycan array binding signal (z-score),[27],1.31
same,glycan array binding signal (z-score),[28],1.81
same,glycan array binding signal (z-score),[29],-0.361
same,glycan array binding signal (z-score),[30],-0.306
same,glycan array binding signal (z-score),[31],-0.181
same,glycan array binding signal (z-score),[32],-0.312
same,glycan array binding signal (z-score),[33],-0.336
same,glycan array binding signal (z-score),[34],3.36
same,glycan array binding signal (z-score),GlcNAc(b1-3)GalNAc,-0.321
same,glycan array binding signal (z-score),GlcNAc(b1-3)Man,-0.325
same,glycan array binding signal (z-score),[35],-0.116
same,glycan array binding signal (z-score),[36],1.2
same,glycan array binding signal (z-score),[37],-0.12
same,glycan array binding signal (z-score),[38],-0.249
same,glycan array binding signal (z-score),GlcNAc(b1-4)GlcNAc,3.11
same,glycan array binding signal (z-score),[39],4.83
